Data as given in PubChem BioAssay AID2451 (National Center for Advancing Translational Sciences (NCATS), 2010).
Values joined by “and” are separate entries in the source; they are usually repeats but may differ in a detail not shown here. Equal values may be shown once. Screen size: about 290,000 compounds; about 2,100 (0.72%) were called active. Inconclusive results, whose numbers are uncertain, are shown with a selection of clear calls. Calls follow the shape of the dose curve; as a rule, active = well fitted inhibition curve with a large enough effect; inconclusive = small, poorly fitted or top-dose-only effect, or effect the other way; inactive = flat fitted curve, though single readings scatter. A potency beside an inconclusive call is a rough fit, not a confirmed value.

target: Fructose-bisphosphate aldolase (Giardia intestinalis (strain ATCC 50803 / WB clone C6)) (UniProt A8B2U2); assay: qHTS Assay for Inhibitors of Fructose-1,6-bisphosphate Aldolase from Giardia Lamblia; conditions: purified Giardia FBPA; series mostly up to 59.6 µM; also: nearly all actives have a fitted effect of over 55% in size
Chain of UniProt A8B2U2 (A8B2U2 whole entry, looked up): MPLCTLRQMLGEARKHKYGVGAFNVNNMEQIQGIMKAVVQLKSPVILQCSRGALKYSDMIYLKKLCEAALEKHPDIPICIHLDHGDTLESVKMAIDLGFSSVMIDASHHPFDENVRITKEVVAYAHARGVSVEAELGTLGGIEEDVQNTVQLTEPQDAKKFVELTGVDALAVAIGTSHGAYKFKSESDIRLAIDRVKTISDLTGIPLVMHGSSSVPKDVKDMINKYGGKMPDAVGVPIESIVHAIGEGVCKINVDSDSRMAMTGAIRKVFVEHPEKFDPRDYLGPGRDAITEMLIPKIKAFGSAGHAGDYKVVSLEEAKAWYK
Procedure, shortened: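 Giardia FBPA (40 nM reagent) was preincubated 10 min at RT with compound (up to 57.5 uM final), then substrate plus GAPDH/TPI/NAD/arsenate coupling system with diaphorase/resazurin was added; resorufin fluorescence (525/598 nm) was read after 20 min.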
Potency is read from the fitted curve at half-maximal effect; tags tell the direction and shape of the fitted curve.

Compound | Potency
CN(C)c1cccc2cccc(N(C)C)c12 | inconclusive: 3.15 µM [inhibitor, full curve]
COc1ccc(-c2c3c([nH]c(=S)c2C#N)CCC3)cc1 | inconclusive: 15.8 µM [inhibitor, partial curve]
Cc1ccc(-n2c(N)c(C(=O)N3CCN(C)CC3)sc2=S)cc1 | active: 9.98 µM
CN(C)CCn1c(=S)[nH]c2ncccc2c1=O | inconclusive: 19.9 µM [inhibitor, partial curve]
CCOC(=O)c1cnc2ccc(OCC)cc2c1NCc1cccnc1 | inconclusive: 12.6 µM [inhibitor, partial curve]
C/C(=N\NC(=O)c1ccc(Cl)cc1)c1ccc(N2CCOCC2)cc1 | inactive
O=C(O)C1OC(Oc2c(-c3ccc(O)c(O)c3)oc3cc(O)cc(O)c3c2=O)C(O)C(O)C1O (stereo unspecified) | inconclusive: 15.8 µM [inhibitor, partial curve]
O=CNn1cnc2c(oc3nc(-c4ccccc4)cc(-c4ccco4)c32)c1=O | inconclusive: 25.1 µM [inhibitor, single point]
CCOC(=O)N1CCC(NC(=O)c2oc3c(F)cccc3c2C)CC1 | inactive
Cc1noc(C)c1CNCc1ccccc1 | inconclusive: 25.1 µM [inhibitor, single point]
CCOC(=O)c1c(C)[nH]c(C(=O)CSc2ccccc2)c1C | inactive
O=C(O)/C(=C\C(=O)c1ccccc1)Nc1ccccc1 | inconclusive: 14.1 µM [inhibitor, partial curve]
COc1ccc(N2CSC3=C(C#N)C(c4ccc(OC)c(OC)c4)CC(=O)N3C2)c(OC)c1 (stereo unspecified) | active: 1.41 µM
CC(C)n1cnc2c(NCc3ccc(S(N)(=O)=O)cc3)nc(NCc3ccc(S(N)(=O)=O)cc3)nc21 | inactive
CC1(C)Cc2c(C#N)c(NC3CCCCC3)nc(-c3ccco3)c2CO1 | inconclusive: 17.7 µM [inhibitor, partial curve]
Cn1nnc(NC(=S)NC(=O)/C=C/c2ccco2)n1 | active: 3.54 µM
CCC(c1nnnn1CCOC)N(Cc1ccc(C)cc1)Cc1cc2cc(OC)ccc2[nH]c1=O (stereo unspecified) | inconclusive: 35.4 µM [inhibitor, single point]
Cc1cc(/C=C/c2ccc3cc(N(C)C)ccc3[n+]2C)c(C)n1-c1ccccc1 | inconclusive: 11.2 µM [inhibitor, partial curve]
CCN(CC)c1ccc(-c2n[nH]c(=S)n2-c2ccccc2C)cc1 | inactive
CC(=O)NC1CCN(CC(=O)Nc2nccs2)CC1 | active: 10 µM
CC1(OC(=O)CCc2ccccc2)C(=O)C=C2C=C3CCCN3C=C2C1=O (stereo unspecified) | inconclusive: 998 nM [inhibitor, full curve] and inconclusive: 706 nM [inhibitor, full curve]
COc1ccc(C(=O)c2c(C)c3cc(C)ccc3n2CC(O)CN2CCOCC2)cc1 (stereo unspecified) | inactive
COc1cc2c(c(OC)c1O)C(=O)CO2 | inconclusive: 1.58 µM [inhibitor, partial curve]
Cc1cc2cc(C(c3nnnn3Cc3ccccc3)N3CCc4ccccc43)c(=O)[nH]c2cc1C (stereo unspecified) | inconclusive: 17.7 µM [inhibitor, partial curve]

Compound | Potency
CC(C)Cn1c(N)c(C(=O)NCCN2CCOCC2)c2nc3ccccc3nc21 | inconclusive: 19.9 µM [inhibitor, partial curve]
Cc1c(C)c2c(OCC(=O)NCc3ccco3)cc3c(c2oc1=O)CCC(C)(C)O3 | inactive
O=C(C1CCCN(Cc2ccccc2F)C1)N1CCCCC1 (stereo unspecified) | active: 12.6 µM
CCOc1cc(C(=O)NC(=S)Nn2cnnc2)cc(OCC)c1OCC | active: 15.8 µM
Cc1ccc(/C=N/n2c(C)n[nH]c2=S)o1 | inconclusive: 17.7 µM [inhibitor, partial curve]
CSc1ncc(Cl)c(C(=O)Nc2nnc(SC/C=C/c3ccccc3)s2)n1 | inconclusive: 12.6 µM [activator, partial curve]
CCC1=C(C)CN(C(=O)NCCc2ccc(S(=O)(=O)NC(=O)NC3CCC(C)CC3)cc2)C1=O (stereo unspecified) | inconclusive: 17.7 µM [activator, single point] and inconclusive: 19.9 µM [activator, single point]
COC(=O)c1sccc1NC(=O)CC1C(=O)NCCN1C(=O)c1ccc(N(C)C)cc1 (stereo unspecified) | inactive
CNC(=S)N/N=C(\C)c1ccccc1 | inconclusive: 15.8 µM [inhibitor, single point]
NCC12CC3CC(C1)CC(c1ccc(Cl)cc1)(C3)C2 | inactive
CN1CCS/C1=C/C=C1/SC(=S)N(Cc2ccccc2)C1=O | inconclusive: 17.7 µM [inhibitor, partial curve]
CCOC(=O)C1=C(N)Oc2cc(O)ccc2C1c1cccc([N+](=O)[O-])c1 (stereo unspecified) | inactive
O=C(CNC(=S)NC(=O)C1CCCCC1)c1ccccc1 | inactive
CC(=O)N1CCN(CC(=O)Nc2ccc([N+](=O)[O-])cc2Br)CC1 | inactive
Cn1c(C(=O)N2CCN(c3ncccn3)CC2)cc2c(=O)n(C)c3ccccc3c21 | active: 17.7 µM
N/C(=N\NC(=O)c1ccc(Cl)cc1)c1cnccn1 | inconclusive: 15.8 µM [inhibitor, partial curve]
CCN(c1ccccc1)S(=O)(=O)c1ccc(OC)c(NC(=O)Cn2cnc3c2c(=O)n(C)c(=O)n3C)c1 | inactive
CCNc1nc(NC(C)C)nc(OCCNS(=O)(=O)c2cc(C)ccc2C)n1 | inactive
CC(CN1CCCC1)OC(=O)c1ccc(Cl)cc1Cl (stereo unspecified) | active: 15.8 µM
N/C(CN1CCCC1=O)=N\OC(=O)c1ccccc1Cl | inactive
COCc1[nH]c(=S)[nH]c(=O)c1C | inconclusive: 15.8 µM [inhibitor, single point]
CCOc1cccc(NC(=O)C2CC(=O)N(C)C(=Nc3ccccc3)S2)c1 (stereo unspecified) | inactive
CC1Cc2cc(/C(O)=C3/C(=O)C(=O)N(CCCn4ccnc4)C3c3cccc([N+](=O)[O-])c3)ccc2O1 (stereo unspecified) | inconclusive: 35.5 µM [inhibitor, partial curve]
O=C(NCCN1CCc2ccccc2C1)C1CCN(S(=O)(=O)N2CCC3(CC2)OCCO3)CC1 | inconclusive: 25.1 µM [inhibitor, single point]

Compound | Potency
O=C(Nc1ccc2c(c1)OCO2)NC1(C(F)(F)F)Oc2ccccc2O1 | inconclusive: 15.8 µM [inhibitor, partial curve]
CC(C)(C)OC(=O)N1CCC(Cc2cc(-c3ccc(Cl)cc3)no2)(C(=O)O)CC1 | inconclusive: 39.8 µM [activator, partial curve]
Cc1cc2nc(C)c(Cl)c(=O)n2[nH]1 | inconclusive: 12.6 µM [inhibitor, partial curve]
COC(=O)C1=CO[C@@H](C)[C@@H]2CN3CCc4c([nH]c5ccccc45)[C@@H]3C[C@H]12 | inconclusive: 5 µM [inhibitor, partial curve]
Cc1cc(C)c2nc(N3CCCN(C(=O)c4ccco4)CC3)c(C#N)cc2c1 | inconclusive: 12.6 µM [inhibitor, partial curve]
COc1cccc(-c2cc(NCCc3c[nH]c4ccc(OC)cc34)ncn2)c1 | inconclusive: 17.7 µM [inhibitor, single point]
CC(=O)n1cc([C@@H]2C=C(C(=O)Nc3ccccc3)O[C@H](OCc3ccc(CO)cc3)C2)c2ccccc21 | inactive
O=[N+]([O-])C1=CC=C2C(=NC3(CCCCC3)N2O)C1=NC1CCCCC1 | inconclusive: 7.06 µM [inhibitor, full curve]
Cc1cc2nn(-c3cccc4ccccc34)nc2cc1N | inconclusive: 2.51 µM [inhibitor, full curve]
Fc1ccc(NCc2cn3ccccc3n2)cc1 | inconclusive: 25.1 µM [inhibitor, single point]
CC(=O)Nc1ccc(CCc2nc3ccccc3[nH]2)cc1 | inactive
CS(=O)(=O)c1ccc(Cn2c3c(c4cc(F)cc(F)c42)CCC[C@H]3CC(=O)O)cc1 | inconclusive: 12.6 µM [activator, full curve]
CCCCC(CC)CNCC(O)c1ccccc1 (stereo unspecified) | inconclusive: 19.9 µM [inhibitor, partial curve]
S=C(NCCCCNC(=S)NCc1ccccc1)NCc1ccccc1 | inconclusive: 14.1 µM [inhibitor, partial curve]
COC(=O)c1sc(-c2ccc(Cl)cc2)cc1NC(=O)/C=C/C(=O)O | inconclusive: 19.9 µM [activator, single point]
CCOc1ccc(NC(=O)COC(=O)C2(C)CC2(Cl)Cl)c([N+](=O)[O-])c1 (stereo unspecified) | inactive
CN(CCc1ccccn1)Cc1ccc(Cl)cc1Cl | active: 17.7 µM
COC(=O)C1C=C2c3cccc4[nH]cc(c34)CC2N(C)C1 (stereo unspecified) | inconclusive: 2.23 µM [inhibitor, full curve]
O=S(=O)(Nc1cccc2ncccc12)c1cccs1 | inconclusive: 28.2 µM [inhibitor, single point]
C=CCNC(=S)N1CCC(Cc2ccccc2)CC1 | inconclusive: 3.55 µM [inhibitor, full curve, poor fit]
Cc1ccc(-n2ncc3c(NNC(=O)c4cccs4)ncnc32)cc1 | inactive
CC(=O)Nc1ccc(NC2=C/C(=N/S(=O)(=O)c3cccs3)c3ccccc3C2=O)cc1 | inconclusive: 0.281 µM [inhibitor, full curve]
COc1cc2c(cc1OC)C(/C(C#N)=N\O)=NC(C)(C)C2 | inconclusive: 3.55 µM [inhibitor, full curve]
